# Results as given in the supplement of paper PMC3334620.
# Whole data set: some 33,000 sequences, median “E-score (-0.5 to 0.5)” near -0.054, cut for the highest 2% near 0.39. This is one part of the list.
# Target: Ylr278c (UniProt Q05854)
# Assay: PBM E-score (8-mer binding enrichment) (E-score (-0.5 to 0.5)); higher = stronger / more preferred TF binding; most listed sequences are background and not binding sites
# Conditions: protein concentration: 200 nM; construct: GST-DNA-binding domain
# Method in brief: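 E-scores (a modified Wilcoxon-Mann-Whitney statistic) were assigned by the Universal PBM Analysis Suite to every ungapped eight-base word pooled with its reverse complement. The input came from universal all-10-mer Agilent arrays made double-stranded by primer extension and probed with GST-tagged yeast transcription factors at about 100-200 nM. Fluorescent anti-GST detected bound protein, and masliner normalised the scans.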
row,Sequence,PBM E-score
1,GCTCGCCA,0.118
2,ACTGGTAA,-0.0163
3,GCTCCCAA,-0.214
4,AAACGTGA,-0.24
5,AGCAGTTG,0.0654
6,ACCAGCTA,-0.265
7,ATTATCCC,0.0767
8,ATGCGCAA,-0.00788
9,CGTGAAAG,-0.107
10,ACTGCCCA,-0.151
11,CTAAGTGC,-0.0901
12,CCATAGGG,-0.154
13,GTCTGCGA,-0.207
14,AGATGATC,-0.1
15,AGTCGTCG,-0.179
16,TGCAAGCA,-0.192
17,CGTCATTC,0.0753
18,CATGCTCA,-0.115
19,AGCCTTCG,-0.241
20,CATGCCTC,0.0379
21,GTAGCTAA,-0.0284
22,CAGGCAGA,-0.208

row,Sequence,PBM E-score
1,CTAGCGGC,0.0333
2,GCCGCGTA,0.144
3,AGTAGGCC,-0.0194
4,AACTGGTC,-0.13
5,AGAGGGTG,-0.101
6,CGAGGATA,-0.0254
7,ATCGTGGA,-0.131
8,GAAGCGAC,0.00481
9,AAGCCTAT,-0.0687
10,AACCAAGG,-0.12
11,GCCTCAAA,0.0285
12,AAAGGCGT,-0.123
13,CTGCAGGC,-0.0424
14,GCTAAACA,-0.13
15,CTATGCCA,-0.313
16,GGTTATAA,0.00528
17,CAACCACG,-0.0753
18,CGTAGTTC,0.0309
19,GGTTAAAC,-0.0116
20,ATTTGGGC,-0.125
21,GCCGAGGC,0.262
22,CGAGCACG,0.117

row,Sequence,PBM E-score
1,AGCGAGAT,0.102
2,ATCGCTTC,0.0849
3,CTTAAGGC,-0.0736
4,GCAAACCA,-0.11
5,ATCCTAGG,-0.156
6,CCTACAGA,-0.256
7,ACCCCGGT,0.385
8,CTGGAGCC,0.0766
9,AATGGGGT,-0.0839
10,CAGATCTC,0.00836
11,AGGCTCCC,-0.0902
12,AACCAAAC,-0.0774
13,AGCACACC,-0.0307
14,ACCAAAAA,0.15
15,ATTTAGGC,-0.113
16,GACGTCTC,-0.157
17,GAGTGAAA,0.0457
18,TCCAACCA,-0.0655
19,ATCTAGGG,-0.295
20,ATCGTGCC,-0.0594
21,CTGAGCAA,-0.205
22,CCTTGCAC,-0.0997

row,Sequence,PBM E-score
1,GAACGTTC,-0.0972
2,GAGCGTAC,-0.215
3,ATTGCCAC,-0.149
4,AGCGATTA,-0.0841
5,AGCCGAAG,0.0537
6,ATCCATGA,-0.236
7,CAGGACCA,0.0244
8,CCGTGGCC,0.0234
9,CTGAAAAG,-0.131
10,CGTCCGCC,0.319
11,GATGCGGA,0.365
12,CCTGGAAC,-0.237
13,GGGTGCAC,-0.0684
14,CCAGATCA,-0.0898
15,GTCTCTCA,-0.167
16,ATAATACC,0.0972
17,AGGTCAAC,-0.208
18,CCTGGCCA,-0.185
19,ATCGTCGA,-0.239
20,GCTAGAAC,-0.169
21,GGGCTGCA,-0.00859
22,GGCTGTAC,-0.0996

row,Sequence,PBM E-score
1,ATCGACCC,0.0346
2,AAGGATGG,-0.0635
3,GGTAATGA,0.0715
4,CAAATTAG,-0.0614
5,AAATGTTA,-0.114
6,ACTGTCCC,0.0353
7,AAGAGGGC,-0.282
8,TAGTCGCA,-0.0137
9,CGAATGCG,0.223
10,CTCAGCCA,-0.0917
11,TAATAAAA,-0.0513
12,GCCAAAAC,-0.0997
13,CACACCCG,0.0332
14,CAGGGCCA,-0.226
15,CTGATTTC,-0.0243
16,AACGCTAT,-0.0678
17,ACGATCCT,-0.239
18,CAATATTC,0.0142
19,CCAGGAAC,-0.118
20,ATGCGGGG,0.161
21,CTCATTTA,0.0721
